From the supplement of paper PMC3334620
The full ranking holds about 33,000 sequences; the median of “E-score (-0.5 to 0.5)” is about -0.016, and the highest 2% start at about 0.31. This is one part of the list.

target: Cst6 (UniProt P40535); experiment: PBM E-score (8-mer binding enrichment) (E-score (-0.5 to 0.5)); higher = stronger / more preferred TF binding; most listed sequences are background and not binding sites; details: protein concentration: 200 nM; construct: GST-DNA-binding domain
Protocol: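 Universal 'all 10-mer' protein binding microarrays (Agilent AMADID 015681) probed with GST-tagged S. cerevisiae TFs (full-length or DBD) made by in vitro transcription/translation (PURExpress), about 100-200 nM. Bound TF was detected with fluorescent anti-GST. Each ungapped 8-mer (which stands for itself and its reverse complement) is scored by the PBM enrichment score (E-score), a modified Wilcoxon-Mann-Whitney statistic from -0.5 to +0.5, computed with the Universal PBM Analysis Suite. Scale: above 0.35 generally sequence-specific binding.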

Sequence | PBM E-score
ATTGCTAA | 0.188
CACATTAG | -0.113
CGGAACTA | 0.049
GTAGCTAC | 0.036
CCGCCTAG | -0.138
AATGGTCC | -0.0776
AGCAGTAG | -0.215
AAGCGCAA | -0.0221
AGACCAGA | -0.174
GATCCGCC | 0.0101
ACTGTGGA | -0.14
AGGGAGGA | -0.278
ATTCCCTG | -0.0439
CGCCTGAC | 0.106
GTCGAGCA | -0.301
GACTACCA | -0.05
CCGGGTAA | 0.0368
GAGGCTGC | -0.199
CGAGCCCC | -0.298
CTGTATCA | 0.00931
GAAGAATC | -0.0963
CACTCTGA | -0.088
CAGTTCGA | -0.142
ATTGTTGG | 0.17
AGTGGGAA | -0.0276

Sequence | PBM E-score
CGATACCA | -0.0648
ACATTCTA | 0.188
AACCGTGC | 0.104
CCAATAGA | -0.0188
CTGACTAA | 0.0104
CGGTAGCC | -0.151
GGGTATAA | -0.0811
CCGGCGTA | -0.134
GATTTTTA | 0.163
CCTTCGAG | -0.21
AACGTGCA | 0.0964
GATAGCCC | -0.303
CATCTGGA | -0.121
CTGCGAAA | 0.0232
CGATCACC | 0.0718
ACGACTCT | -0.147
AGCTGACT | -0.0426
CTGTAGTA | 0.17
AGCACTAG | -0.135
GTTCATCA | 0.117
GCAGATAC | 0.0922
CTGATATA | 0.179
ATCGCACA | 0.0332
GCGCATGA | -0.043
CATGCACA | 0.13

Sequence | PBM E-score
CAACCCTG | -0.0882
ACCTACGT | 0.176
GGGACTTA | -0.34
CTACGAAG | -0.247
CCTCTCGA | -0.117
AGCATCCG | -0.0957
ATGCTCTG | -0.171
CAATGTTC | -0.0427
GGATTGTA | -0.0291
ACGGCGCC | 0.364
AACGTGGG | -0.154
TGATTTAA | 0.225
AAAGTCTC | -0.139
GCAATTGC | 0.201
ACAGCGAG | -0.0516
CCACGTGA | 0.0246
ATATAGGC | 0.0227
ACCGAAAA | 0.169
CAACAAGC | 0.0945
AACCTTAA | 0.105
GGGTGCTA | -0.0878
GGGGCTAA | -0.12
ACACTACC | -0.126
TACCTCCA | -0.251
AGTGCTAA | -0.0867

Sequence | PBM E-score
GTCAGCCA | 0.0293
AGGGATTG | 0.0457
GCGCGGTA | -0.0504
ACCCTATC | -0.0377
TCTGAGCA | -0.0929
GAGACGTA | 0.148
ATTTGGAG | 0.0131
ACATTAAA | 0.198
CCTGTATA | -0.101
CGTACTCC | -0.0754
CCTATTTC | 0.11
ACCGATCG | 0.00376
AGTCATAT | 0.153
CGACAGGA | 0.0383
AAGCTTAG | 0.0927
ACGGACCC | -0.172
AGAGACAC | -0.0892
ACGTAAAT | 0.385
GCGAACCC | -0.206
AGAAAACT | 0.156
CCATGTCC | -0.0555
CTGGGTCC | -0.343
AATGTCGT | 0.195
GGCCGCAA | -0.164
CGAACGTA | 0.1

Sequence | PBM E-score
ACACTAAA | 0.0906
AGCGCGTC | -0.0646
GCAGCACC | -0.207
CGTTAGAA | 0.101
ACTTCCTA | -0.249
ATACATTC | 0.0532
CTAGGCAA | -0.0898
GACTTGCC | -0.333
AATGACAG | 0.167
ACAAGAGA | -0.0878
CTCTGTCC | -0.283
CATCACGA | 0.183
AATGACTC | 0.0789
GTAACTAA | 0.128
CGGGTGCA | -0.17
CAGTGGGC | -0.144
CAATGGCC | -0.314
CCCCTGCA | -0.296
GACATCAC | 0.431
CAAACGCA | -0.0382
CATTGGAG | -0.0914
CGGTGCTA | -0.164
CATCTAAC | 0.0128
AGCCCGGA | -0.369
CATATTGA | 0.207

Sequence | PBM E-score
CCGTCGGC | -0.145
GACGTACA | 0.25
GTTTCAGA | -0.0246
ACCCAAGA | -0.118
AGCGAGCC | -0.105
AGAGAGTC | -0.145
AACCGCCA | -0.0425
CCAGTCAC | -0.207
CTGCGGCA | 0.182
CGTTACCC | -0.141
CAACCCGG | -0.262
TGATCAAA | 0.147
ATAGTAAA | 0.158
GAAATAGC | -0.0647
CCACCTAA | -0.0425
AGACCGCT | -0.257
CTCAGAAG | -0.19
ACGGGTGG | -0.0768
CATAACAA | 0.225
ATGCTAAC | 0.0681
ACTCCGAC | -0.133
CGCGCACA | 0.144
AAAATGTC | 0.238
AGCTCTGG | -0.234
AAAATTGC | 0.0935

Sequence | PBM E-score
CATCGAGA | 0.0229
CAATGGTG | -0.254
ATGGTTCC | -0.00483
GTGGGAGA | -0.263
CGACCGAG | -0.244
CAACTTGC | -0.135
CTAACTAA | 0.0125
AGCCTGAA | -0.0532
ATGCTCGC | -0.0729
AACTTGGC | -0.0139
ACGTCTAC | 0.082
CCAGAGCG | -0.306
AAATCCCC | -0.25
CAGGCAAA | 0.0338
GCGCTAAC | 0.0914
CCTGGACC | -0.26
ATCGGAAC | -0.111
ACCCCACG | -0.224
GTGGGCAA | -0.138
AAGTCGCC | -0.219
ATCACACA | 0.162
CATCGACA | -0.108
AAGTGTGG | -0.125
AGGCCTGC | -0.252
AGTCCTCG | -0.209

Sequence | PBM E-score
GGAGCGGA | -0.166
CGGGAACG | -0.199
ACCCCGAG | -0.234
AACGCCTA | -0.00722
ACACACTC | 0.0263
CATGAATA | 0.0861
GACGCATA | 0.315
ACTGACGG | 0.105
ACTCCCTC | -0.168
ACCATTGG | -0.0729
AAACAAGA | 0.0875
AGGACTTC | -0.235
GTGGAAAA | 0.0659
GTGCGAAA | -0.00531
AGACCACG | -0.232
AGTAGCAA | 0.0802
CAAAACCC | 0.0437
CGCGCCAC | 0.0722
AGACCCAA | -0.0611
CCAGCGTC | -0.213
CACTCATC | 0.00188
AGCAGCGC | -0.224
GGTGAGTA | -0.0162
GGCAACAA | 0.194
AGAGATTC | -0.0387

Sequence | PBM E-score
AATTCCGA | 0.0242
AGATCTGG | -0.21
GACAATGC | 0.0763
GAGATCCA | -0.142
CGCGATCC | -0.0522
ACACGAAA | 0.0875
ACGGTGCG | 0.104
GTCAATTA | 0.132
TAGTTATA | 0.177
ACCGCCGA | -0.117
CTTACAAA | 0.105
CATCTTCG | -0.0381
GTCACTGA | 0.281
ATTCTGAG | 0.104
TATTGTCA | 0.276
ATTTCACA | 0.175
ACATGCCT | 0.0329
ACTCCCGG | -0.227
CAGATGTC | 0.0572
